# Test results: publication PMC4336329 (PLoS ONE, 2015)
# The campaign covered roughly 310,000 compounds. About 14,000 (4.5%) showed an effect of 50% or more. Effects have a minus sign here. The list shows a part of the results.
# Molecular target: human ether-à-go-go-related gene (hERG) potassium channel (human, UniProt Q12809)
# Assay: primary screen, population patch clamp on CHO cells stably expressing hERG
# 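Also: peak tail current of the secondary pulse compared with the same well before compound.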
# human ether-à-go-go-related gene (hERG) potassium channel, sequence (Q12809 whole entry, looked up): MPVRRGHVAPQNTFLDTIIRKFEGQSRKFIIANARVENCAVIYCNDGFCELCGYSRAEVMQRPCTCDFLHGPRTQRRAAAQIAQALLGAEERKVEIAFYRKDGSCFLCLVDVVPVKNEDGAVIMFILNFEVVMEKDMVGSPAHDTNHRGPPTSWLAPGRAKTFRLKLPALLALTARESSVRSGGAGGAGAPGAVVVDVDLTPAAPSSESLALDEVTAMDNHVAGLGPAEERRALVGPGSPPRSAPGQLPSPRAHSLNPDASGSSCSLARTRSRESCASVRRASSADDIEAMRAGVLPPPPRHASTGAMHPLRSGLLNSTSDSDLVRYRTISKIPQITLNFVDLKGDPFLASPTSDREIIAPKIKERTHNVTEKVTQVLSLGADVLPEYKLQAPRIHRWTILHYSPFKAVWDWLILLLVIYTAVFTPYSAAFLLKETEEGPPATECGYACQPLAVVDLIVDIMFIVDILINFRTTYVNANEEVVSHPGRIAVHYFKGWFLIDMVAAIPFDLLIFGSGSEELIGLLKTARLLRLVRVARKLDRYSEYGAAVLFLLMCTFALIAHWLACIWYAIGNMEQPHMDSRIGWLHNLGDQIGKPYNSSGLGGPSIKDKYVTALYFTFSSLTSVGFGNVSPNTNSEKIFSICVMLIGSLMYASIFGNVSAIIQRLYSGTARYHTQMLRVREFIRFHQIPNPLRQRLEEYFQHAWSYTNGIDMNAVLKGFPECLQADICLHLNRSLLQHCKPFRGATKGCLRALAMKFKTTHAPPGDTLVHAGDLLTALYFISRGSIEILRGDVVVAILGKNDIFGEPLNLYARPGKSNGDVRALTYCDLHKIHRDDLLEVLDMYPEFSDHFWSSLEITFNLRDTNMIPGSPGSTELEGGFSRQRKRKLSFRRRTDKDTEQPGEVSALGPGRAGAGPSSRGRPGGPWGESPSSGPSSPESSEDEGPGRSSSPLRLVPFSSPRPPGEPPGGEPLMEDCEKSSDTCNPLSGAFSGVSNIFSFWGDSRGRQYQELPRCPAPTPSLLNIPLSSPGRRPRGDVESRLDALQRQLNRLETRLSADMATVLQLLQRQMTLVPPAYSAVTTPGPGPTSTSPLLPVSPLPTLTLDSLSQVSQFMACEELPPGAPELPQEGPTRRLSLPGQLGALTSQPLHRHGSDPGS
row,Compound,"hERG current change (%, negative = inhibition) at 10uM"
1,O=C(Nc1cccc(S(=O)(=O)N2CCCCCC2)c1)c1ccc(=O)[nH]c1,-19.5%
2,Cc1cc(C2=CC(=O)C[C@H](c3ccc4c(c3)OCO4)C2)ccc1F,3.08%
3,COc1ccc(OC)c(NC(=O)Nc2ccc(O)c3ccccc23)c1,15.1%
4,C/C(=N/Nc1nc(-c2ccccc2F)nc2ccccc12)c1ccccc1O,8.64%
5,COc1cc(C(=S)N2CCOCC2)cc(OC)c1OC(=O)c1ccc(C)cc1,-3.8%
6,Cc1ccc(S(=O)(=O)NC(=O)c2ccc(-c3ccc(C)c4ccccc34)o2)cc1,2.82%
7,COC(=O)c1ccc(NC(=O)CNc2ccccc2)cc1,-1.52%
8,O=C(O)c1ccccc1NC(=O)c1ccccc1-c1ccccc1C(=O)O,18.5%
9,O=C(Cn1c(=O)sc2ccccc21)OC(CCl)CCl,0.714%
10,CC(C)C(NS(=O)(=O)c1cccc2nsnc12)C(=O)N1CCc2ccccc2C1 (centres unmarked),-2.3%
11,O=C(Nc1cccc2ccccc12)c1ccc([N+](=O)[O-])s1,8.79%
12,O=C(c1ccc2c(c1)[nH]c(=S)n1c3ccccc3nc21)N1CCN(c2ncccn2)CC1,-2.52%
13,COC(=O)C1Cc2c([nH]c3ccccc23)C(C)N1 (centres unmarked),-9.61%
14,Cc1ccc(CN2CCN(Cc3cccn3-c3ccccn3)CC2CCO)cc1 (centres unmarked),-82%
15,CCc1ccccc1N(CC(=O)NCc1ccco1)C(=O)c1snc(C(N)=O)c1N,-32.1%
16,Cn1cc(CN2CCC(C(=O)N3CCCC3)CC2)c(-c2ccccc2F)n1,-4.8%
17,Cc1ccc(-c2nn(C)c(=O)c3ccccc23)cc1S(=O)(=O)NCCN(C)C,4.35%
18,COC(=O)c1cccc(NC2CC(=O)N(c3ccc(OC)c(OC)c3)C2=O)c1 (centres unmarked),5.1%
19,COc1ccc(-c2nnc(NC(=O)c3cc(Cl)ccc3Cl)o2)cc1,-8.99%
20,O=C(O)COc1ccc2oc3ccccc3c2c1,22.8%
21,COC(=O)C1CC(c2c(OC)cc(OC)cc2OC)=NO1 (centres unmarked),4.02%
22,Cc1cc(=O)[nH]c(CCl)n1,32.7%
23,COC(=O)/C=C/C(=O)N1CCN(c2ccccc2)CC1,-11.2%

row,Compound,"hERG current change (%, negative = inhibition) at 10uM"
1,O=C1CC(/C=C/c2cccnc2)=Nc2ccccc2N1,14.1%
2,CSCCC(=O)N1CCCC(CO)(CCCc2ccccc2)C1 (centres unmarked),-8.88%
3,Cc1ccc(CNC(=O)Cn2c(=O)n(-c3ccccc3)c(=O)c3sccc32)cc1,1.3%
4,C#CCNc1cc(C)nc2ncnn12,10.3%
5,CC(C)(C)OC(=O)N1CCC(CNC(=O)c2ccc(F)cc2)CC1,2.89%
6,CC(C)OCCCn1c(=O)c2ccccc2n2c(CCC(=O)NC3CCN(Cc4ccccc4)CC3)nnc12,-51.4%
7,Clc1ccc(/C=N\Nc2ccccc2)cc1,13.8%
8,CCN(CC(=O)Nc1ccccc1C(F)(F)F)C(=O)CN1C(=O)NC(C)(c2ccccc2)C1=O (centres unmarked),18.6%
9,Cc1cccc(NC(=S)NCc2ccccn2)c1,18.2%
10,CCC(Oc1ccc2ccccc2c1)C(=O)O (centres unmarked),13.8%
11,O=C(O)COc1nsnc1N1CCOCC1,10.4%
12,CC(OC(=O)Cc1ccc(Cl)cc1)C(=O)NCCC1=CCCCC1 (centres unmarked),1.99%
13,Cc1ccc(C)c(N2CCN(S(=O)(=O)c3ccc4c(c3)NC(=O)CO4)CC2)c1,12.7%
14,O=C(O)/C=C/c1cn(-c2ccccc2)nc1-c1ccc2c(c1)OCCO2,10.1%
15,O=C1c2ccccc2-c2cccc(C(=O)N3CCCCC3)c21,2.9%
16,COc1cccc(-n2nc3c(-n4ncc(C#N)c4N)nnc(C)c3c2C)c1,-27.7%
17,Nc1cc(=O)[nH]c(=O)n1Cc1ccccc1,12.1%
18,O=C(N/N=C\c1ccc(Cl)s1)c1cccs1,23.2%
19,CCOC(=O)/C(=C/C1=CC(=C/N(C)C)/C(=O)O1)C(C)=O,6.52%
20,CC(=O)OC1C2CCC1C(N1CCCCC1)CC2.Cl (centres unmarked),16.8%
21,Brc1ccc2ncc(Br)cc2c1,13.1%
22,Cc1ccc(C(=O)N2CCC(Cc3ccccc3)CC2)cc1[N+](=O)[O-],-63.8%
23,CC1(C)CC(=O)c2cnc(NC(=O)c3ccco3)nc2C1,7.03%

row,Compound,"hERG current change (%, negative = inhibition) at 10uM"
1,CCOC(=O)c1cc(S(=O)(=O)N2CCc3ccccc32)cn1C,-0.504%
2,Cc1ccccc1C(=O)Nc1nnc(SC(C)C)s1,0.0104%
3,CC(C)C(=O)Nc1nnc(SCC(=O)NCC2CCCO2)s1 (centres unmarked),0.5%
4,O=C(CNC(=S)N(Cc1ccccc1)Cc1cccnc1)NC1CC1,-11.4%
5,O=C(Nc1nc(N2C(=O)c3ccccc3C2=O)n(-c2ccccc2)n1)c1ccc(Cl)cc1,-7.9%
6,O=C(Oc1c(Cl)cc(Cl)c2ccccc12)N1CCCCC1,7.5%
7,COc1cc(/C=N/Nc2nc3ccccc3o2)cc(OC)c1O,-6.58%
8,CCOC(=O)N1CCN(C(=O)C2CC(=O)N(c3ccccc3)C2)CC1 (centres unmarked),5.31%
9,COc1ccc(NS(=O)(=O)c2ccc(N3CCOCC3)c(NC(=O)c3cccc(F)c3)c2)cc1,-17.9%
10,CC(NC(=O)c1ccco1)c1cccc2ccccc12 (centres unmarked),-13.5%
11,CC(C)OC(=O)NCN1C(=O)C2C3C=CC(C3)C2C1=O (centres unmarked),-0.869%
12,Cn1c(=O)c(C(=O)CSc2ccccc2)c(N)n(Cc2ccccc2)c1=O,20.5%
13,CC1CCN(S(=O)(=O)c2cccc(C(=O)N(C)C3CCS(=O)(=O)C3)c2)CC1 (centres unmarked),11.7%
14,COc1ccc(OC)c(CNc2ccc(F)c(Cl)c2)c1,2.7%
15,COc1ccc(CCn2c(-c3ccc(OC)cc3)nc3c(c(=O)c4ccccc4n3C)c2=O)cc1,11.4%
16,CC(C)CC(NC(N)=O)C(=O)OCC(=O)Nc1ccc(OC(F)F)cc1 (centres unmarked),-12.2%
17,COc1ccccc1NC(=O)c1c(C)oc2c1CCCC2,4.78%
18,NC(=O)Cn1nnc(-c2ccc(NC(=O)c3ccc(F)cc3)cc2)n1,-1.95%
19,Cc1ccc(NC(=O)CSc2n[nH]c(C)c2[N+](=O)[O-])cc1,-1.27%
20,Cn1c(CSCc2ccc(Cl)c(Cl)c2)n[nH]c1=S,-16.6%
21,CC(C)CNc1c(N)c(=O)oc2ccccc12,-2.67%
22,O=C(c1ccccc1)c1ccc(N2CCOCC2)c(F)c1,-1.04%
23,CCOC(=O)C1CCCN(c2c(NCCN3CCCCC3CC)c(=O)c2=O)C1 (centres unmarked),5.19%

row,Compound,"hERG current change (%, negative = inhibition) at 10uM"
1,COc1cccc(C2c3[nH]c4ccccc4c3C[C@H]3C(=O)N(C4CC4)CC(=O)N23)c1 (some centres unmarked),-13.1%
2,COc1ccc(CCN2C(=O)CC(C(N)=O)SC2=Nc2ccc(F)cc2)cc1OC (centres unmarked),-11.5%
3,CNC(=O)N(O)C1N(/N=C/c2cccs2)C(=S)SC1(C)C (centres unmarked),16.1%
4,Oc1ccc(NCc2cccs2)cc1,-1.71%
5,Cn1c(=O)c2c(nc(N/N=C/c3cccnc3)n2Cc2ccc(F)cc2)n(C)c1=O,-16.8%
6,COc1cccc(/C=N/Nc2nn3cnnc3c3ccccc23)c1,-20.4%
7,CCOC(=O)C1(S(=O)(=O)c2ccc(Cl)cc2)CCN(Cc2ccc(Cl)cc2)CC1,14.7%
8,Cc1cnccc1CNC(=O)C1CCC(=O)N(Cc2ccc(Cl)cc2)C1 (centres unmarked),-44.7%
9,CCOc1ccc(C(C)=O)cc1N1C(=O)C2C(C1=O)C1C=CC2C12CC2 (centres unmarked),14.9%
10,COc1cc(N(Cc2ccccc2)Cc2ccccc2)c2ncn(C(C)C)c2c1,6.37%
11,CCOc1ncccc1C(=O)OC(C)C(=O)Nc1ccc(CC)cc1 (centres unmarked),27.9%
12,Cc1csc(SCC(=O)Nc2cc(C(C)(C)C)nn2-c2ccccc2)n1,-32.2%
13,CC1CN(C(=S)NC(=O)c2ccc([N+](=O)[O-])cc2)CC(C)O1 (centres unmarked),-1.58%
14,CCC1CCCCN1CCCNC(=O)c1cn(CC)c2ccc(S(=O)(=O)N3CCc4ccccc4C3)cc2c1=O (centres unmarked),-72%
15,CCOC(=O)c1c(C)[nH]c(C(=O)OCc2ccccc2F)c1C,22.6%
16,CC(C)OC(=O)c1nnn(-c2nonc2N)c1CN1CCCCCC1,-12%
17,CCN(CC)S(=O)(=O)c1ccc(N=Nc2c(C)[nH]n(C(N)=S)c2=O)cc1,-30.1%
18,CC1CCc2cc(F)ccc2N1C(=O)c1cnc2sccn2c1=O (centres unmarked),18.5%
19,Cc1cc(C)c(NC(=O)C2CCCN2C)c(C)c1 (centres unmarked),9.43%
20,CC(C)CC(=O)Nc1ccc(-c2cn3ccsc3n2)cc1,13.8%
21,Cc1c(C(=O)OC(C)C)sc2nc[nH]c(=O)c12,0.594%
22,COc1ccc(N2CCN(C(CNC(=O)c3ccc4c(c3)OCO4)c3ccco3)CC2)cc1 (centres unmarked),8.39%
23,Cc1ccc(OCC(=O)Nc2ccc(N(C)C)cc2)cc1,4.38%
